Laboratory results from the supplement of paper PMC4604168 (melanoma cell lines).
This is one part of the list. Repeats are few or missing, and single values can be far off.
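Further: cell number obtained by counting DAPI-stained nuclei in high-throughput microscope images with image analysis software, screen run in 1,536-well plates.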

What follows are compounds tested on SkMel30 (assay: cell count relative to DMSO control; melanoma cells; higher = more viable cells). Conditions: library dose: low library concentration; 72 h.
Compound `CC1(C)CCC(c2ccc(Cl)cc2)=C(CN2CCN(c3ccc(C(=O)NS(=O)(=O)c4ccc(N[C@H](CCN5CCOCC5)CSc5ccccc5)c(S(=O)(=O)C(F)(F)F)c4)cc3)CC2)C1` + C[C@]1(c2nc3c(C(N)=O)cccc3[nH]2)CCCN1 [Veliparib] (first compound 0.4 µM, partner dose 1.4 µM) has a cell count of 70%.
Compound `Cc1ccc(Nc2nccc(N(C)c3ccc4c(C)n(C)nc4c3)n2)cc1S(N)(=O)=O` [Pazopanib] + CC(=O)c1c(C)c2cnc(Nc3ccc(N4CCNCC4)cn3)nc2n(C2CCCC2)c1=O [palbociclib] (first compound 0.4 µM, partner dose 0.04 µM) has a cell count of 66.6%.
Work on `O=C(/C=C/c1cccnc1)NCCCCC1CCN(C(=O)c2ccccc2)CC1` + CC(=O)O[C@@]12CO[C@@H]1C[C@H](O)[C@@]1(C)C(=O)[C@H](O)C3=C(C)[C@@H](OC(=O)[C@H](O)[C@@H](NC(=O)OC(C)(C)C)c4ccccc4)C[C@@](O)([C@@H](OC(=O)c4ccccc4)[C@H]21)C3(C)C [Docetaxel] (first compound 0.01 µM, partner dose 0.0001 µM) yielded a cell count of 36.2%.
For `O=C(/C=C/c1cccnc1)NCCCCC1CCN(C(=O)c2ccccc2)CC1` + COc1ccc(C2=N[C@@H](c3ccc(Cl)cc3)[C@@H](c3ccc(Cl)cc3)N2C(=O)N2CCNC(=O)C2)c(OC(C)C)c1 [Nutlin-3] (first compound 0.01 µM, partner dose 0.1 µM), the cell count was 115%.
`O=C(/C=C/c1cccnc1)NCCCCC1CCN(C(=O)c2ccccc2)CC1` + COc1ccc(Cl)c(Nc2nc3ccccc3nc2NS(=O)(=O)c2cccc(NC(=O)C(C)(C)N)c2)c1 [XL147] (first compound 0.01 µM, partner dose 0.8 µM) was tested, and the cell count was 106%.
`O=C(/C=C/c1cccnc1)NCCCCC1CCN(C(=O)c2ccccc2)CC1` + CCN(CC)CCCCNc1ncc2cc(-c3cc(OC)cc(OC)c3)c(NC(=O)NC(C)(C)C)nc2n1 [PD173074] (first compound 0.01 µM, partner dose 0.1 µM) was tested, and the cell count was 106%.
`O=C(/C=C/c1cccnc1)NCCCCC1CCN(C(=O)c2ccccc2)CC1` + C[C@]1(O)C[C@@H](c2nc(-c3ccc4ccc(-c5ccccc5)nc4c3)c3c(N)nccn32)C1 [OSI906] (first compound 0.01 µM, partner dose 0.4 µM) showed a cell count of 84.6%.
Compound `Cc1ccc(Nc2nccc(N(C)c3ccc4c(C)n(C)nc4c3)n2)cc1S(N)(=O)=O` [Pazopanib] + CS(=O)(=O)CCNCc1ccc(-c2ccc3ncnc(Nc4ccc(OCc5cccc(F)c5)c(Cl)c4)c3c2)o1 [lapatinib] (first compound 0.4 µM, partner dose 0.8 µM) has a cell count of 66.9%.
`CC1(C)CCC(c2ccc(Cl)cc2)=C(CN2CCN(c3ccc(C(=O)NS(=O)(=O)c4ccc(N[C@H](CCN5CCOCC5)CSc5ccccc5)c(S(=O)(=O)C(F)(F)F)c4)cc3)CC2)C1` + O=C(Nc1cccc(Cl)c1)Nc1ncc(CCNc2ncnc3ccsc23)s1 [SNS314] (first compound 0.4 µM, partner dose 0.0008 µM) was tested, and the cell count was 84.9%.
Compound `O=C(/C=C/c1cccnc1)NCCCCC1CCN(C(=O)c2ccccc2)CC1` + CO[C@H]1C[C@@H]2CC[C@@H](C)[C@@](O)(O2)C(=O)C(=O)N2CCCC[C@H]2C(=O)O[C@H]([C@H](C)C[C@@H]2CC[C@@H](OCCO)[C@H](OC)C2)CC(=O)[C@H](C)/C=C(\C)[C@@H](O)[C@@H](OC)C(=O)[C@H](C)C[C@H](C)/C=C/C=C/C=C/1C [everolimus] (first compound 0.01 µM, partner dose 0.02 µM) has a cell count of 99.4%.
In the case of `CC1(C)CCC(c2ccc(Cl)cc2)=C(CN2CCN(c3ccc(C(=O)NS(=O)(=O)c4ccc(N[C@H](CCN5CCOCC5)CSc5ccccc5)c(S(=O)(=O)C(F)(F)F)c4)cc3)CC2)C1` + CO[C@H]1C[C@@H]2CC[C@@H](C)[C@@](O)(O2)C(=O)C(=O)N2CCCC[C@H]2C(=O)O[C@H]([C@H](C)C[C@@H]2CC[C@@H](OCCO)[C@H](OC)C2)CC(=O)[C@H](C)/C=C(\C)[C@@H](O)[C@@H](OC)C(=O)[C@H](C)C[C@H](C)/C=C/C=C/C=C/1C [everolimus] (first compound 0.4 µM, partner dose 0.02 µM), the cell count is reported as 49.5%.
`O=C(/C=C/c1cccnc1)NCCCCC1CCN(C(=O)c2ccccc2)CC1` + C#Cc1cccc(Nc2ncnc3cc(OCCOC)c(OCCOC)cc23)c1 [erlotinib] (first compound 0.01 µM, partner dose 0.8 µM) showed a cell count of 78.8%.
`CC1(C)CCC(c2ccc(Cl)cc2)=C(CN2CCN(c3ccc(C(=O)NS(=O)(=O)c4ccc(N[C@H](CCN5CCOCC5)CSc5ccccc5)c(S(=O)(=O)C(F)(F)F)c4)cc3)CC2)C1` + Cn1cnc2c(F)c(Nc3ccc(Br)cc3Cl)c(C(=O)NOCCO)cc21 [selumetinib] (first compound 0.4 µM, partner dose 0.015 µM) showed a cell count of 66.1%.
For `O=C(/C=C/c1cccnc1)NCCCCC1CCN(C(=O)c2ccccc2)CC1` + Cn1cnc2c(F)c(Nc3ccc(Br)cc3Cl)c(C(=O)NOCCO)cc21 [selumetinib] (first compound 0.01 µM, partner dose 0.015 µM), the cell count was 82.3%.
Compound `Cc1ccc(Nc2nccc(N(C)c3ccc4c(C)n(C)nc4c3)n2)cc1S(N)(=O)=O` [Pazopanib] + CC(C)CCN1c2nc(Nc3cc(F)c(O)c(F)c3)ncc2N(C)C(=O)C1C [BID1870] (first compound 0.4 µM, partner dose 0.2 µM) has a cell count of 84.4%.
In the case of `CC1(C)CCC(c2ccc(Cl)cc2)=C(CN2CCN(c3ccc(C(=O)NS(=O)(=O)c4ccc(N[C@H](CCN5CCOCC5)CSc5ccccc5)c(S(=O)(=O)C(F)(F)F)c4)cc3)CC2)C1` + COc1ccc2c(c1)CCC1C2CCC2(C)C(NCCCCCCN3C(=O)C=CC3=O)CCC12 [U73122] (first compound 0.4 µM, partner dose 0.4 µM), the cell count is reported as 62.6%.
`O=C(/C=C/c1cccnc1)NCCCCC1CCN(C(=O)c2ccccc2)CC1` + Cc1cn(-c2cc(NC(=O)c3ccc(C)c(Nc4nccc(-c5cccnc5)n4)c3)cc(C(F)(F)F)c2)cn1 [nilotinib] (first compound 0.01 µM, partner dose 0.2 µM) showed a cell count of 93.1%.
Work on `Cc1ccc(Nc2nccc(N(C)c3ccc4c(C)n(C)nc4c3)n2)cc1S(N)(=O)=O` [Pazopanib] + NC(=O)c1ccc(N(C(N)=O)c2c(F)cccc2F)nc1-c1ccc(F)cc1F [VX702] (first compound 0.4 µM, partner dose 0.4 µM) yielded a cell count of 93.9%.
In the case of `Cc1ccc(Nc2nccc(N(C)c3ccc4c(C)n(C)nc4c3)n2)cc1S(N)(=O)=O` [Pazopanib] + O=C(O)c1ccc(-c2c[nH]c3ncc(-c4ccccc4)cc23)cc1C1CCCC1 [GSK650394] (first compound 0.4 µM, partner dose 0.16 µM), the cell count is reported as 88.1%.
Work on `CC1(C)CCC(c2ccc(Cl)cc2)=C(CN2CCN(c3ccc(C(=O)NS(=O)(=O)c4ccc(N[C@H](CCN5CCOCC5)CSc5ccccc5)c(S(=O)(=O)C(F)(F)F)c4)cc3)CC2)C1` + Nc1nc(F)nc2c1ncn2[C@@H]1O[C@H](CO)[C@@H](O)[C@@H]1O [fludarabine] (first compound 0.4 µM, partner dose 0.2 µM) yielded a cell count of 14.4%.
Work on `Cc1ccc(Nc2nccc(N(C)c3ccc4c(C)n(C)nc4c3)n2)cc1S(N)(=O)=O` [Pazopanib] + Cc1nc(Nc2ncc(C(=O)Nc3c(C)cccc3Cl)s2)cc(N2CCN(CCO)CC2)n1 [dasatanib] (first compound 0.4 µM, partner dose 0.004 µM) yielded a cell count of 90.7%.
`CC1(C)CCC(c2ccc(Cl)cc2)=C(CN2CCN(c3ccc(C(=O)NS(=O)(=O)c4ccc(N[C@H](CCN5CCOCC5)CSc5ccccc5)c(S(=O)(=O)C(F)(F)F)c4)cc3)CC2)C1` + Cn1c(Nc2ccc(C(F)(F)F)cc2)nc2cc(Oc3ccnc(-c4ncc(C(F)(F)F)[nH]4)c3)ccc21 [CHIR265] (first compound 0.4 µM, partner dose 0.08 µM) showed a cell count of 39.9%.
`CC1(C)CCC(c2ccc(Cl)cc2)=C(CN2CCN(c3ccc(C(=O)NS(=O)(=O)c4ccc(N[C@H](CCN5CCOCC5)CSc5ccccc5)c(S(=O)(=O)C(F)(F)F)c4)cc3)CC2)C1` + C=C(c1ccc(C(=O)O)cc1)c1cc2c(cc1C)C(C)(C)CCC2(C)C [Bexarotene] (first compound 0.4 µM, partner dose 2 µM) showed a cell count of 62.5%.
`CC1(C)CCC(c2ccc(Cl)cc2)=C(CN2CCN(c3ccc(C(=O)NS(=O)(=O)c4ccc(N[C@H](CCN5CCOCC5)CSc5ccccc5)c(S(=O)(=O)C(F)(F)F)c4)cc3)CC2)C1` + Cc1cn(-c2cc(NC(=O)c3ccc(C)c(Nc4nccc(-c5cccnc5)n4)c3)cc(C(F)(F)F)c2)cn1 [nilotinib] (first compound 0.4 µM, partner dose 0.2 µM) showed a cell count of 65%.
In the case of `Cc1ccc(Nc2nccc(N(C)c3ccc4c(C)n(C)nc4c3)n2)cc1S(N)(=O)=O` [Pazopanib] + CO[C@H]1C[C@@H]2CC[C@@H](C)[C@@](O)(O2)C(=O)C(=O)N2CCCC[C@H]2C(=O)O[C@H]([C@H](C)C[C@@H]2CC[C@@H](OCCO)[C@H](OC)C2)CC(=O)[C@H](C)/C=C(\C)[C@@H](O)[C@@H](OC)C(=O)[C@H](C)C[C@H](C)/C=C/C=C/C=C/1C [everolimus] (first compound 0.4 µM, partner dose 0.02 µM), the cell count is reported as 62.6%.
